# Laboratory results published in PubChem BioAssay AID488969 (Vanderbilt High Throughput Screening Facility, 2010).
# Over roughly 110,000 compounds, “z-score” has its median near -0.1; the highest 2% begin near 2. This is one part of the list. Activity calls are given as the source filed them.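 How the source made its calls: active means z-score in the third read window above 3 or below -3; inactive means the rest.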
# Biological target: Metabotropic glutamate receptor 8 (Rattus norvegicus) (UniProt P70579)
# UniProt P70579, sequence (P70579 whole entry, looked up): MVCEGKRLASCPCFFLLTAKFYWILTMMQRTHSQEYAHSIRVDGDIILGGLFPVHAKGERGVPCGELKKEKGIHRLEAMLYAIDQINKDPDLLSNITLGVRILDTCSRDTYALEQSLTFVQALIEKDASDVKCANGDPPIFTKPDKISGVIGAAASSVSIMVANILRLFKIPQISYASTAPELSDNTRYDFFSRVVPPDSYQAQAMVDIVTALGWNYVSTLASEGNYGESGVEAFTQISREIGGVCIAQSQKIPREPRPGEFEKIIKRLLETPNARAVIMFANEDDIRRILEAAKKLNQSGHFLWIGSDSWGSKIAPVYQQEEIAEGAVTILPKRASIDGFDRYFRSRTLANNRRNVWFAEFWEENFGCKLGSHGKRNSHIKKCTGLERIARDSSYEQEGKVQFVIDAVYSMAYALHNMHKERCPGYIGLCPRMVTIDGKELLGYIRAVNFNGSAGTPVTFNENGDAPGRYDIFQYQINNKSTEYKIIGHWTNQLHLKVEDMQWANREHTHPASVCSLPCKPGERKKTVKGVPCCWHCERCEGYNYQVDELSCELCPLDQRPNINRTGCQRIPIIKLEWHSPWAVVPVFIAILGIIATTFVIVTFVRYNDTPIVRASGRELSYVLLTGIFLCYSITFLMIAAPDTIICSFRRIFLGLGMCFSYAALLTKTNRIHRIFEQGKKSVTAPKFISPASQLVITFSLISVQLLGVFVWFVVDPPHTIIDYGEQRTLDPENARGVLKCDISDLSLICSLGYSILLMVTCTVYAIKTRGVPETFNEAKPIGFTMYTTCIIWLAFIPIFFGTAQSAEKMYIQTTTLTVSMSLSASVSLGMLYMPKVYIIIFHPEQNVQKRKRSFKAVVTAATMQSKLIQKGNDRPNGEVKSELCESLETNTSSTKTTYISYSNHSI
# Assay: mGluR8 Gi/Go-coupled signaling modulation – cell-based, rat, thallium flux, HTS, primary screen (AID 488969)
# Conditions: HEK293 rat mGluR8, GIRK (G protein-gated inwardly rectifying potassium channel) thallium flux, FluoZin2; at 10 µM; stronger effect = higher value; submaximal glutamate (EC20) added with thallium
row,Compound,z-score
1,Cc1ccc(S(=O)(=O)NCCNC(=O)N2CCOCC2)cc1,0.182
2,Cc1c(NC(=O)c2ccc3c4c(cccc24)CC3)c(=O)n(-c2ccccc2)n1C,-0.0564
3,CCOC(=O)c1ccc(NC(=O)CCC2COc3ccccc3O2)cc1 (centres undefined),-0.191
4,Cn1c(-c2ccccc2)cnc1NCc1cc2c(cc1[N+](=O)[O-])OCO2,-1.22
5,CCCCC(=O)NS(=O)(=O)c1ccc(NS(C)(=O)=O)cc1,0.0545
6,Cn1c(C2=C(O)CN(c3ccc4c(c3)OCCO4)C2=N)nc2ccccc21,-0.527
7,C/C(CC(=O)NC1C2CC3CC(C2)CC1C3)=N\NC(=O)Cc1cccs1 (centres undefined),-0.142
8,C=C(C)CN(CC)CCC(=O)Nc1ccc(OC)cc1OC,-0.5
9,Cc1ccc(-c2cnn(-c3cccc(C(F)(F)F)c3)c2N)cc1,-0.183
10,COc1ccc(S(=O)(=O)N(c2onc(C)c2Cl)S(=O)(=O)c2ccc(OC)cc2)cc1,-0.13
11,Cc1ccc(-c2nnn(CC(=O)N3CCCc4ccccc43)n2)cc1,0.105
12,CCOc1ccccc1C(=O)Nc1ccc2nc(N3CCN(c4ncccn4)CC3)cc(C)c2c1,-0.112
13,COc1ccc(/C=C/C(=O)c2cc(Br)ccc(=O)c2O)cc1,active: 3.14
14,Cn1ncc(N=Cc2c(O)ccc3ccccc23)c1C(=O)N1CCOCC1,-0.205
15,Cc1nnc(SC(C)C(=O)Nc2ccc(S(=O)(=O)NC3CCCCC3)cc2)s1 (centres undefined),-0.213
16,CC1Cc2ccccc2N1C(=O)CSc1nc2ccccc2o1 (centres undefined),-1.12
17,CC(C)CNC(=O)COC(=O)/C=C/c1ccccc1[N+](=O)[O-],-0.0356
18,CCOc1cc(/C=N\NC(=O)c2ccc(NC(=O)C(C)(C)C)cc2)ccc1OC(=O)c1cccc(C)c1,-0.144
19,COc1ccc(-c2nnc(SCC(=O)Nc3nc4ccccc4s3)n2C)cc1,-0.454
20,CC(=O)c1cccc(NC(=O)COc2ccc(S(=O)(=O)N3CCCCC3)cc2)c1,-0.505
21,S=c1[nH]nc(-c2ccco2)n1/N=C/c1ccc(Cl)cc1Cl,active: 6.87
22,Cc1ccnc(NC(=O)c2cc(S(=O)(=O)N3CCCCC3)ccc2Cl)c1,-0.103
23,CCCc1cc(N2CCN(C(=O)c3ccco3)CC2)n2c(nc3ccccc32)c1C#N,-0.829

row,Compound,z-score
1,CCOC(=O)Nc1ccc(C)cc1C,-0.166
2,NC(=O)c1c(NC(=O)Cc2cccs2)sc2c1CCC2,-0.944
3,CC(Oc1ccc(F)cc1)C(=O)Nc1ccc2ccccc2c1 (centres undefined),-0.37
4,CC(C)OC(=O)c1c(NC(=O)c2cnn3c2NC(c2ccccc2)CC3C(F)(F)F)sc2c1CCCC2 (centres undefined),-0.108
5,CN1C(=O)SC(Nc2ccccc2)C1=O (centres undefined),-0.00139
6,CCC(=O)Oc1ccc(-c2cnc3ccccc3n2)cc1,-0.929
7,O=C(Nc1ccccc1)c1ccccc1CC[N+](=O)[O-],-0.0873
8,Cc1cc(-c2c(C)n([O-])c(C)c(C)[n+]2=O)ccc1F,-0.1
9,Cc1ccc(OCCCn2c(=O)sc3ccccc32)cc1,-0.0299
10,N#CC1=C(N)SC(N)=C(C#N)C1c1ccoc1,-0.768
11,CC12CCC(C(=O)N(NC(=O)c3ccccc3Cl)C1=O)C2(C)C (centres undefined),0.00342
12,CCOC(=O)c1cn(CC)c2cc(Cl)c([N+](=O)[O-])cc2c1=O,-0.287
13,CCN(CC)c1ccc(CNc2ccc(Br)cn2)cc1,-0.0669
14,COc1ccc(N2C(=O)C3C4c5ccccc5C(C=Nc5ccc(C)cc5C)(c5ccccc54)C3C2=O)cc1 (centres undefined),-0.139
15,O=C(CCS(=O)(=O)c1ccccc1)Nc1cccc(-c2nc3ccccc3s2)c1,-0.366
16,CCOc1ccc(-c2nnc3sc(COc4ccccc4)nn23)cc1,0.953
17,CCc1nnc(NC(=O)CCN2C(=O)c3ccccc3S2(=O)=O)s1,0.0115
18,CCOC(=O)c1cnc(-n2nc(C)cc2C)nc1NCCO,0.000586
19,COc1cc(OC)cc(C(=O)Nc2ccc(-c3nc4ccccc4o3)cc2)c1,-0.273
20,O=S(=O)(Nc1ccccn1)c1ccc(C2CCCCC2)cc1,0.0558
21,CC(=O)Nc1ccc(S(=O)(=O)N2CCN(S(=O)(=O)N3CCCCCC3)CC2)cc1,-0.27
22,O=C(NCCc1c[nH]c2ccccc12)/C(=C\c1cccnc1)NC(=O)c1ccco1,-0.07
23,CCOC(=O)c1c(-c2ccccc2)oc2ccc(OC(C)=O)cc12,-0.454

row,Compound,z-score
1,CSC(=NC#N)N1CCN(c2ccccc2)CC1,-0.78
2,O=C(NCCc1ccccc1)c1cccc([N+](=O)[O-])c1,-0.2
3,CCC(=O)Nc1nnc(CSCc2ccc(F)cc2)s1,0.0266
4,COc1cccc(-c2nnc(SCCOc3ccc4c(C)cc(=O)oc4c3)o2)c1,0.0574
5,NC(=O)CNC(=O)[C@@H]1CC2(CC(c3ccccc3)=NO2)CN1C(=O)c1ccc(Br)cc1 (some centres undefined),-0.124
6,Cc1ccc(NC(=O)C2CC(=O)NC(N3CCCCC3)=N2)cc1Cl (centres undefined),-0.889
7,COc1ccc(CN(C(=O)CSc2nnc(-c3ccccc3C)o2)c2ccc(F)cc2)cc1,-0.159
8,Cn1c(Cn2cnc3ccccc32)nc2ccccc21,0.0047
9,CCOC(=O)c1cc(-c2ccccc2)sc1NC(=O)C(C)Sc1nnc(N)s1 (centres undefined),-0.246
10,Cc1nn(C)c(=O)n1-c1ccc(OCc2ccccc2)cc1,-0.0419
11,O=C(NCCc1ccccc1)/C(=C\c1ccc([N+](=O)[O-])cc1)NC(=O)c1ccccc1,-0.177
12,O=C(NCCCn1ccnc1)c1cc2c(s1)CCCCC2,-0.182
13,O=C(N/N=C/c1cccc(Br)c1)c1ccc(Cn2cc(Br)cn2)o1,-0.645
14,Cc1cc(OCC(C)C)ccc1/C(O)=C1/C(=O)C(=O)N(Cc2cccnc2)C1c1ccncc1 (centres undefined),-0.0254
15,c1ccc(CCc2nc(-c3ccccc3)no2)cc1,0.0313
16,COc1ccc(C)cc1S(=O)(=O)N1CCC(C(=O)NCCc2ccccc2)CC1,-0.227
17,NC1=NC(=O)C(Cc2cccc(Cl)c2)S1 (centres undefined),-0.248
18,COc1ccccc1-c1cc(C(F)(F)F)nc(NCc2ccco2)n1,0.206
19,CSC1=C(C#N)C(c2ccc3c(c2)OCO3)C2=C(CCCC2=O)N1 (centres undefined),0.613
20,O=C(CSC1=Nc2ccccc2C2=NC(c3ccccc3)C(=O)N12)NCC1CCCO1 (centres undefined),2.65
21,CCn1c(SCC(=O)N=Nc2c(O)[nH]c3ccccc23)nc2ccccc21,-1.72
22,COc1cccc(N2CCN(c3c(C#N)c(C(F)(F)F)nn3C)CC2)c1,-0.192
23,COc1ccc(S(=O)(=O)Oc2ccc3c(c2)O/C(=C\c2cccnc2)C3=O)cc1,0.09
